# Measured values taken from PubChem BioAssay AID624417 (National Center for Advancing Translational Sciences (NCATS), 2012).
# Out of some 410,000 compounds screened, about 6,400 (1.6%) were called active. Inconclusive means that the source gave no clear call. Such entries were picked first, then a sample of the others. Calls come from the whole dose curve; as a rule, active = well fitted inhibition curve with a large enough effect; inconclusive = small, poorly fitted or top-dose-only effect; inactive = no such curve, though single readings can be large or run the other way. Potencies of inconclusive entries are left out as doubtful fits.
# Molecular target: Glucagon-like peptide 1 receptor (Homo sapiens) (UniProt P43220)
# Assay: qHTS of GLP-1 Receptor Inverse Agonists (Inhibition Mode); note: nearly all actives have a fitted effect of over 55% in size
# Settings: HEK293 GLP-1R CRE-luciferase, luminescence, 24 h, GLP-1R form is constitutively active; activity change, negative = inhibition: at 38.3 µM (top of the series) unless noted
# In short: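 Inverse agonists were sought by their lowering of basal cAMP reporter luciferase output in HEK293 cells stably carrying constitutively active human GLP-1R, after 24 h compound treatment.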
# % is set by controls: 0 for no effect and ±100 for the full control effect; potency is the fitted concentration of half-maximal effect; tags give direction and shape of the fitted curve.
# UniProt P43220, sequence (P43220 whole entry, looked up): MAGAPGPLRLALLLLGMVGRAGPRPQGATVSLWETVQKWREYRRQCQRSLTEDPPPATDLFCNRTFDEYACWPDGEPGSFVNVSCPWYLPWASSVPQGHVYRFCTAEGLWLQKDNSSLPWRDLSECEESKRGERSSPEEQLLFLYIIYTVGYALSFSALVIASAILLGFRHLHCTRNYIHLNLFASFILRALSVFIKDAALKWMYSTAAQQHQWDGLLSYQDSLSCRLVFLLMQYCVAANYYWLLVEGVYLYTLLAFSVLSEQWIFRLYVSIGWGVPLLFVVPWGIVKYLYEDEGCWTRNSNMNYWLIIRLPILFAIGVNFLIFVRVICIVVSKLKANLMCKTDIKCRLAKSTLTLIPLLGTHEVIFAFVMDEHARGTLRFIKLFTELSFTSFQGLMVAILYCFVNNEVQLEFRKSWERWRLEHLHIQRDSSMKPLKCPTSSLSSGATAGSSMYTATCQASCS
Structure (SMILES),Potency,"activity change, negative = inhibition"
COc1ccc(/C=C(/C(=O)c2ccc(Cl)cc2Cl)n2cncn2)cc1,"inconclusive [inhibitor, single point]",
O=C(/C=C/c1ccco1)NCC1(c2ccccc2)CCCC1,"inconclusive [inhibitor, single point]",
CCCCOc1ccccc1C1C(C(=O)OC)=CN(CC)C=C1C(=O)OC,"inconclusive [inhibitor, partial curve, poor fit]",
COc1ccc(CCNC(=O)Nc2ccc([N+](=O)[O-])cc2)cc1OC,"inconclusive [inhibitor, partial curve, poor fit]",
CCc1cc(-c2n[nH]c(=S)n2-c2cccc(C)c2)cs1,"inconclusive [inhibitor, single point]",
CCOc1ccc(-c2nonc2NC(=O)c2oc3ccc(Br)cc3c2C)cc1,"inconclusive [inhibitor, single point]",
CC(C)CCN1C(=O)c2ccc(C(=O)NCc3ccccn3)cc2C1=O,inactive,
Cc1nc(N2C(=O)c3oc4ccccc4c(=O)c3C2c2cccc(OCCC(C)C)c2)sc1C (stereo unspecified),inactive,
Cc1ccc(N2CC(NC(=O)Cc3cccs3)CC2=O)cc1C (stereo unspecified),inactive,
CC(C)(C)NC(=O)CSc1nnc(-c2ccccc2)c(-c2ccccc2)n1,active: 8.91 µM,
Oc1ccc(/C=N/NC(=S)Nc2cccnc2)c(O)c1,"inconclusive [inhibitor, single point]",
O=C(NCc1ccc(F)cc1)c1cccc2c1C(=O)c1ccc(N3CCOCC3)cc1S2(=O)=O,"inconclusive [inhibitor, partial curve, poor fit]",
O=c1cc(COn2nnc3ccc(C(F)(F)F)cc32)nc2sccn12,"inconclusive [inhibitor, single point]",
COc1ccc(OC)c(NC(=O)Nc2ccc3[nH]ccc3c2)c1,"inconclusive [inhibitor, single point]",
CN(c1ccc(C(=O)NCCSCc2ccc(Cl)cc2)cc1)S(=O)(=O)c1ccccc1,"inconclusive [inhibitor, single point]",
Cc1coc2cc3oc(=O)c(CCC(=O)NC4CC4)c(C)c3cc12,inactive,
COC(=O)c1ccc(NC(=O)N2CCCC(C(=O)c3ccccc3OC)C2)cc1 (stereo unspecified),"inconclusive [inhibitor, single point]",
CCn1cc(C(=O)N2CCN(c3cccc(C(F)(F)F)c3)CC2)c2cc(OC)c(OC)cc2c1=O,"inconclusive [inhibitor, single point]",
Cc1ccc(Nc2c([N+](=O)[O-])ccc3c2=NC2(CCCCC2)N=3)cc1,inactive,
CC(=O)Nc1ccc(NC(=O)C(=O)NCC(c2ccco2)N2CCc3ccccc32)cc1 (stereo unspecified),"inconclusive [inhibitor, single point]",
COc1ccc(NC(=O)C2CC(=O)N(CCc3ccc(Cl)cc3)C2)cc1 (stereo unspecified),"inconclusive [inhibitor, partial curve, poor fit]",
O=C(Oc1ccc(Br)cc1C(=S)N1CCOCC1)c1ccc(F)cc1,"inconclusive [inhibitor, single point]",

Structure (SMILES),Potency,"activity change, negative = inhibition"
CC(C)COc1ccc(C(=O)Nc2cccc(-c3nc4ccccc4[nH]3)c2)cc1,"inconclusive [inhibitor, single point]",
c1ccc(CSc2nnc(-c3cccs3)n2Cc2ccco2)cc1,"inconclusive [inhibitor, single point]",
CCc1ccc(OC(C)C(=O)N2CCC(c3nc4ccccc4s3)CC2)cc1 (stereo unspecified),"inconclusive [inhibitor, partial curve, poor fit]",
CCOC(=O)c1ccc(NC(=O)Nc2c[nH]c(=O)[nH]c2=O)cc1,inactive,
c1ccc2c(c1)ccc1[nH]c3c(c12)CCCC3,"inconclusive [inhibitor, partial curve, poor fit]",
Cc1ccc(CNC(=O)c2cc3c(s2)-c2ccccc2SC3)cc1,"inconclusive [inhibitor, single point]",
CCC(=O)c1ccc(N2CCN(C(=O)c3ccccc3F)CC2)c(F)c1,inactive,
Cc1ccc2c(c1)C(C)CC(C)(C)N2C(=O)CN1CCN(C)CC1 (stereo unspecified),inactive,
O=C1[C@H]2[C@@H](c3ccc(C(F)(F)F)cc3)N[C@]3(CCCN(Cc4ccco4)C3=O)[C@H]2C(=O)N1Cc1ccccc1,"inconclusive [inhibitor, single point]",
COC(=O)[C@]12CCCCC=C1N(Cc1ccc(Cl)cc1Cl)C(=O)[C@H](CC(=O)NCc1ccccc1)C2,"inconclusive [inhibitor, partial curve, poor fit]",
O=C(CN1c2ccccc2Sc2ccccc21)NNC(=O)Nc1ccc(Cl)cc1,active: 1.41 µM,
Cc1noc(NS(=O)(=O)c2ccc(NC(=O)CSc3n[nH]c(-c4ccccc4)n3)cc2)c1C,inactive,
CCCCCOc1ccc(NC2=CC(=O)CCC2)cc1,,inconclusive: -45.1% [inhibitor]
CC1=C(NCCc2ccccc2)CCC1=O,inactive,
O=C1NN(c2cccc(Br)c2)C(=O)/C1=C/c1cccs1,"inconclusive [inhibitor, full curve, poor fit]",
CC(C)OC(=O)C(C#N)c1nc2ccccc2nc1N1CCCC1 (stereo unspecified),"inconclusive [inhibitor, single point]",
Cc1nnc2c(SC(C)C)nc3ccccc3n12,"inconclusive [inhibitor, single point]",
COc1ccc(C(=O)Nc2c3c(nn2-c2ccc(Cl)cc2)CS(=O)(=O)C3)cc1,"inconclusive [inhibitor, full curve]",
CN(C)S(=O)(=O)c1cccc2c1C(=O)c1ccccc1C2=O,inactive,
CCNC1=C(Cl)C(=O)c2ccccc2C1=O,"inconclusive [inhibitor, single point]",
S=c1[nH]nc(-c2ccco2)n1/N=C/C=C/c1ccco1,inactive,
Cc1ccc(CNC(=O)C2CCCCN2S(=O)(=O)c2ccccc2)cc1 (stereo unspecified),"inconclusive [inhibitor, partial curve, poor fit]",

Structure (SMILES),Potency,"activity change, negative = inhibition"
O=C(NC1CCCCC1)C(c1ccco1)N(C(=O)c1csnn1)c1cccc(Cl)c1 (stereo unspecified),"inconclusive [inhibitor, partial curve, poor fit]",
COc1ccccc1Nc1ncc(C(=O)N2CCN(Cc3ccc(OC)c(OC)c3OC)CC2)c2ccccc12,"inconclusive [inhibitor, single point]",
CCc1nc2c(OCc3cc(Cl)cc(Cl)c3)cccn2c1N(C)C(=O)CC(C)C,"inconclusive [inhibitor, partial curve, poor fit]",
CCOC(=O)C1=C(C)N(C[C@@H]2CC[C@@H](Cc3ccc(-c4ccccc4)cc3)O2)C(=O)NC1c1cccc2ccccc12 (stereo partly specified),"inconclusive [inhibitor, full curve, poor fit]",
Cc1cc(C(C)(C)C)ccc1OCCCCN1CCCC1,inactive,
Fc1ccccc1NC(=S)NC1CCCC1,inactive,
O=C(c1ccco1)N1CCC(c2nc3c(nnn3Cc3ccccc3Cl)c(=O)[nH]2)CC1,inactive,
O=c1[nH]c(SCc2ccc(Cl)cc2)nc2ccsc12,inactive,
COc1ccc(OC)c(-c2csc(NC(=O)COC(=O)C3(C)CC3(Cl)Cl)n2)c1 (stereo unspecified),"inconclusive [inhibitor, partial curve, poor fit]",
CCC(=O)c1ccc(OCC(=O)N(CC)CC2COc3ccccc3O2)cc1 (stereo unspecified),inactive,
COc1ccc(Cl)cc1C(=O)NC1=NCCS1,inactive,
Cc1cc(C(=O)COC(=O)CC2Sc3ccccc3NC2=O)c(C)n1-c1cccc(C(F)(F)F)c1 (stereo unspecified),"inconclusive [inhibitor, partial curve, poor fit]",
CCOC(=O)c1ccc(NC(=S)N(CCCN2CCCC(C)C2)Cc2ccco2)cc1 (stereo unspecified),"inconclusive [inhibitor, partial curve, poor fit]",
Cc1cc(C)cc(C(=O)Nc2ccc(NC(=O)c3cccs3)cc2)c1,"inconclusive [inhibitor, partial curve, poor fit]",
COCCNC(=S)N/N=C(\C)c1cccc(C(F)(F)F)c1,"inconclusive [inhibitor, single point]",
CCOc1ccccc1NC(=O)CN1C(=O)COc2ccc(S(=O)(=O)Nc3ccccc3)cc21,"inconclusive [inhibitor, partial curve, poor fit]",
CCCC/C(O)=C1\C(=O)CC(C)(C)CC1=Nc1ccc(OC)cc1,"inconclusive [inhibitor, partial curve, poor fit]",
C/C(=N\OCC(=O)NC12CC3CC(CC(C3)C1)C2)c1cc2ccccc2o1,"inconclusive [inhibitor, partial curve, poor fit]",
O=C(c1ccco1)N1CCN(c2nc(C(F)(F)F)nc3c2nnn3Cc2ccccc2)CC1,"inconclusive [inhibitor, full curve]",
CCc1ccc(C(=O)OCC(=O)NC2CCCC2)cc1,,inconclusive: -43.2% [inhibitor]
O=C(N/N=C/c1coc2ccc(Cl)cc2c1=O)c1ccncc1,"inconclusive [inhibitor, partial curve, poor fit]",
COc1ccc(CCNC(=O)[C@H](C)N2C(=O)N3CCc4c([nH]c5ccccc45)[C@@]3(C)C2=O)cc1OC,"inconclusive [inhibitor, single point]",
